{"source": "paper PMC4336329", "about": "(PLoS ONE, 2015)", "note": "The campaign covered roughly 310,000 compounds. About 14,000 (4.5%) showed an effect of 50% or more. The effect is printed as a negative number. The list shows a part of the results.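 Note: peak tail current of the secondary pulse compared with the same well before compound.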", "data": [{"biological_target": "human ether-à-go-go-related gene (hERG) potassium channel (human, UniProt Q12809)", "sequence (Q12809 whole entry, looked up)": "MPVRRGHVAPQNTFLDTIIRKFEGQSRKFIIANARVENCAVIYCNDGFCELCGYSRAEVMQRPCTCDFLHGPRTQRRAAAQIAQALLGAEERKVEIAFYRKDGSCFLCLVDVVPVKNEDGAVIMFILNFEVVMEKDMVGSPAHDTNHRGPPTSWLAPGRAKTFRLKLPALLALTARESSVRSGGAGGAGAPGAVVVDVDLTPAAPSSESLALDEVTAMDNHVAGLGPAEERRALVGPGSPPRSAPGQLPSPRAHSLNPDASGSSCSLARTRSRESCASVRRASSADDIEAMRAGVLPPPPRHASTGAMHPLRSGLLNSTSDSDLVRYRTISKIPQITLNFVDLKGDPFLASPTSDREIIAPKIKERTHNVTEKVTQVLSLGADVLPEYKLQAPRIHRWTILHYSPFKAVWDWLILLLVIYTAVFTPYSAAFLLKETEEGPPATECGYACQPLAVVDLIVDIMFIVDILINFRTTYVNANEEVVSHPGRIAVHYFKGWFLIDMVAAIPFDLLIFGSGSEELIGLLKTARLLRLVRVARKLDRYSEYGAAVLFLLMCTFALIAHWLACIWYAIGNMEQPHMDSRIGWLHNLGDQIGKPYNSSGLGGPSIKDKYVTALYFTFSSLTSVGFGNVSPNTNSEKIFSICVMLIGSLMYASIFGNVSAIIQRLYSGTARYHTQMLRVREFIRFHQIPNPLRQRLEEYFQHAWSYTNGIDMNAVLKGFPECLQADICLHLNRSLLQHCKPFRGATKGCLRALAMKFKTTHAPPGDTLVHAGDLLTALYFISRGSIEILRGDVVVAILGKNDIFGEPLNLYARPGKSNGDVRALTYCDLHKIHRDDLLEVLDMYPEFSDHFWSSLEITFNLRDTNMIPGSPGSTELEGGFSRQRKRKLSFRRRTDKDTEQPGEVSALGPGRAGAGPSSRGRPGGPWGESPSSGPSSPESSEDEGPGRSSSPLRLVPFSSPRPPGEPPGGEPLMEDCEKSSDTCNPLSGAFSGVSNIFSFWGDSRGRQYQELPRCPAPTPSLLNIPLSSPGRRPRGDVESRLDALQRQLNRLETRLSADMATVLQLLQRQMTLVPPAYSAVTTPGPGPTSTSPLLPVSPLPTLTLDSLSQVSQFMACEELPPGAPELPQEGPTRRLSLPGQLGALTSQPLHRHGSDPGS", "assay": "primary screen, population patch clamp on CHO cells stably expressing hERG", "units": {"hERG current change (%, negative = inhibition) at 10uM": "%"}, "values": [{"smiles": "CCC(C)C(=O)Nc1nnc(SCC(=O)Nc2ccccc2F)s1", "note": "(centres unmarked)", "hERG current change (%, negative = inhibition) at 10uM": 10.1}, {"smiles": "COc1ccc(CC2(CO)CCN(Cc3cccc(OC)c3OC)CC2)cc1", "hERG current change (%, negative = inhibition) at 10uM": -60.5}, {"smiles": "O=C(CC(C(=O)O)c1ccc(Cl)cc1)c1ccc(Cl)c(Cl)c1", "note": "(centres unmarked)", "hERG current change (%, negative = inhibition) at 10uM": 13.7}, {"smiles": "Cc1ccc(S(=O)(=O)N2CCCCC2)cc1NC(=O)c1c(-c2ccccc2)noc1C", "hERG current change (%, negative = inhibition) at 10uM": -8.93}, {"smiles": "O=S(=O)(Nc1cc(Cl)ccc1-n1cncn1)c1ccc(F)cc1", "hERG current change (%, negative = inhibition) at 10uM": 9.15}, {"smiles": "CCC1CCCCN1CCCNC(=O)c1ccc2nc(N3CCC(C)CC3)sc2c1", "note": "(centres unmarked)", "hERG current change (%, negative = inhibition) at 10uM": -64.5}, {"smiles": "COCCCNC(=O)CC(NS(=O)(=O)c1ccc(F)cc1)c1ccc(OC)cc1", "note": "(centres unmarked)", "hERG current change (%, negative = inhibition) at 10uM": -1.73}, {"smiles": "Cc1ccc(-c2nc3ccccn3c2NCc2ccc3c(c2)OCO3)cc1", "hERG current change (%, negative = inhibition) at 10uM": -69.3}, {"smiles": "N#CC1=C(Nc2ccc(Br)cc2)CCC1", "hERG current change (%, negative = inhibition) at 10uM": -13.7}, {"smiles": "CCN(CC)c1ccc(C(=O)OCC(=O)Nc2ccccc2-c2ccccc2)cc1", "hERG current change (%, negative = inhibition) at 10uM": 17.9}, {"smiles": "c1ccc(-c2nnc(SCc3nnc(-c4cccs4)o3)o2)cc1", "hERG current change (%, negative = inhibition) at 10uM": -40.5}, {"smiles": "O=C1NC(=O)/C(=C\\c2ccccc2Oc2ccc(F)c(F)c2)S1", "hERG current change (%, negative = inhibition) at 10uM": 18.6}, {"smiles": "Cc1ccc(Oc2cc(NC(=O)CCCn3nc(C)c([N+](=O)[O-])c3C)cc([N+](=O)[O-])c2)cc1", "hERG current change (%, negative = inhibition) at 10uM": 1.19}, {"smiles": "COc1ccc(NC(=O)CCN2CCN(S(=O)(=O)c3ccc(C(C)C)cc3)CC2)cc1", "hERG current change (%, negative = inhibition) at 10uM": 4.54}, {"smiles": "Brc1ccc(-c2nc3ncccn3c2Nc2ccc3c(c2)OCCO3)o1", "hERG current change (%, negative = inhibition) at 10uM": -31.9}, {"smiles": "CCCCC(=O)N/C(N)=N/c1nc2ccccc2o1", "hERG current change (%, negative = inhibition) at 10uM": 8.93}, {"smiles": "Cc1nc(NCc2ccccc2)[nH]c(=O)c1CCC(C)C", "hERG current change (%, negative = inhibition) at 10uM": 15.5}, {"smiles": "COCc1cc(C)nc(SCc2ccc(Br)cc2)c1C#N", "hERG current change (%, negative = inhibition) at 10uM": 8.84}, {"smiles": "CCN(CC)CC(=O)Nc1sc2c(c1C(=O)c1ccccc1C)CCC2", "hERG current change (%, negative = inhibition) at 10uM": 2.52}, {"smiles": "Cc1ccn2c(CNC(C)CCn3cccn3)c(C(=O)N3CCCCCC3)nc2c1", "note": "(centres unmarked)", "hERG current change (%, negative = inhibition) at 10uM": -33.1}, {"smiles": "O=C(NCC1CCCO1)c1cc(NS(=O)(=O)c2cccs2)cc(NS(=O)(=O)c2cccs2)c1", "note": "(centres unmarked)", "hERG current change (%, negative = inhibition) at 10uM": 18}, {"smiles": "Cc1cc2ncc(Cl)nc2cc1C", "hERG current change (%, negative = inhibition) at 10uM": 14.2}, {"smiles": "COC(=O)c1c(C)oc2ccc(N(C(=O)Oc3ccccc3)S(=O)(=O)c3ccccc3)cc12", "hERG current change (%, negative = inhibition) at 10uM": 2.5}, {"smiles": "Cc1cc(NC(=O)c2cccc3c2C(=O)N(C2CCCCC2)C3)ccc1Br", "hERG current change (%, negative = inhibition) at 10uM": 13}, {"smiles": "CCCCn1c(N)c(-c2nc3ccccc3s2)c2c([N+](=O)[O-])nn(C)c(=O)c21", "hERG current change (%, negative = inhibition) at 10uM": -5.65}, {"smiles": "CCN1CCN(C(c2cccs2)C(C)NS(=O)(=O)c2ccc(F)cc2)CC1", "note": "(centres unmarked)", "hERG current change (%, negative = inhibition) at 10uM": -28.4}, {"smiles": "COC(=O)c1ccccc1NC(=O)C1CCCN(c2nnc(-n3cccc3)s2)C1", "note": "(centres unmarked)", "hERG current change (%, negative = inhibition) at 10uM": -53}, {"smiles": "O=C(CN1C(=O)c2ccccc2S1(=O)=O)Nc1cccnc1", "hERG current change (%, negative = inhibition) at 10uM": -2.98}, {"smiles": "C=CCc1cccc(/C=N/NC(=O)COc2ccc(-n3cnnn3)cc2)c1O", "hERG current change (%, negative = inhibition) at 10uM": 11.3}, {"smiles": "N#Cc1ccc(OCC(=O)N2CCCC2=O)cc1", "hERG current change (%, negative = inhibition) at 10uM": -0.981}, {"smiles": "O=C(Nc1ccc(F)cc1)C(=O)c1c(O)[nH]c2ccc([N+](=O)[O-])cc12", "hERG current change (%, negative = inhibition) at 10uM": -2.41}, {"smiles": "Cc1ccc(S(=O)(=O)N2CCC(NC(=O)c3cccc(F)c3)CC2)cc1", "hERG current change (%, negative = inhibition) at 10uM": 10.4}, {"smiles": "C=CCn1ncc(OC)c(Cl)c1=O", "hERG current change (%, negative = inhibition) at 10uM": 6.24}, {"smiles": "CCOC(=O)C1=CC[C@H]2c3c(c4ccccc4n3C)C(=O)C1N2C", "hERG current change (%, negative = inhibition) at 10uM": 11.6}, {"smiles": "CCOCc1c(C(=O)NC2=Nc3ccccc3NC(CC)=C2C(=O)OCC)oc2ccccc12", "hERG current change (%, negative = inhibition) at 10uM": 0.462}, {"smiles": "CC(C)COc1ccc(C(=O)NC(CC(C)C)C(=O)O)cc1", "note": "(centres unmarked)", "hERG current change (%, negative = inhibition) at 10uM": 15.4}, {"smiles": "CC(C)(C)c1ccc(S(=O)(=O)NC(Cc2ccccc2)C(=O)O)cc1", "note": "(centres unmarked)", "hERG current change (%, negative = inhibition) at 10uM": 2.7}, {"smiles": "Cc1nn(CC(=O)NC2CCS(=O)(=O)C2)c(C)c1S(=O)(=O)N(C)C", "note": "(centres unmarked)", "hERG current change (%, negative = inhibition) at 10uM": -2.97}, {"smiles": "O=C(c1ccc(Cl)cc1)C1CCN(C(=O)NC2CCCCC2)CC1", "hERG current change (%, negative = inhibition) at 10uM": -6.29}, {"smiles": "CC(C)c1ccc(NC(=S)N2CCCC(c3ccc(F)cc3)=N2)cc1", "hERG current change (%, negative = inhibition) at 10uM": 9.45}, {"smiles": "Cc1cc([N+](=O)[O-])cc2c1NC(c1ccccn1)C1CC=CC21", "note": "(centres unmarked)", "hERG current change (%, negative = inhibition) at 10uM": -10.5}, {"smiles": "O=C(CN1c2cccc3cccc(c23)S1(=O)=O)NCc1ccc(Cl)cc1", "hERG current change (%, negative = inhibition) at 10uM": -13.4}, {"smiles": "COc1ccccc1N1CCN(Cc2cc(=O)c(OCC(=O)Nc3ccccc3)co2)CC1", "hERG current change (%, negative = inhibition) at 10uM": 25.5}, {"smiles": "O=C(NC(C(=O)c1ccccc1)n1cnccc1=O)c1ccccc1", "note": "(centres unmarked)", "hERG current change (%, negative = inhibition) at 10uM": 1.42}, {"smiles": "CC(=O)N1CCc2c(sc(NC(=O)Cc3ccc(F)cc3)c2C(N)=O)C1", "hERG current change (%, negative = inhibition) at 10uM": -3.85}, {"smiles": "COc1ccc(NC(=O)C(NC(=O)c2ccc(=O)[nH]c2)c2ccc(C)cc2)cc1", "note": "(centres unmarked)", "hERG current change (%, negative = inhibition) at 10uM": 6.99}, {"smiles": "CC(Sc1n[nH]c(-c2cccs2)n1)C(=O)Nc1ccccc1F", "note": "(centres unmarked)", "hERG current change (%, negative = inhibition) at 10uM": 1.68}, {"smiles": "CCOc1ccc(C(=O)N2CCCC2)cc1", "hERG current change (%, negative = inhibition) at 10uM": 5.24}, {"smiles": "CN(CC(=O)Nc1cccc(F)c1)C(=O)c1cn(-c2ccccc2)nc1-c1ccccc1", "hERG current change (%, negative = inhibition) at 10uM": -1.36}, {"smiles": "O=C(CCCSc1nc2ccccc2[nH]1)NCc1ccc(Cl)cc1", "hERG current change (%, negative = inhibition) at 10uM": -62.3}, {"smiles": "O=C(O)CNc1ncccc1[N+](=O)[O-]", "hERG current change (%, negative = inhibition) at 10uM": -86.1}, {"smiles": "COCCCNc1c2c(nc3nnnn13)CCCC2", "hERG current change (%, negative = inhibition) at 10uM": 2.52}, {"smiles": "COC(=O)c1ccccc1NC(=O)CSc1nncn1C", "hERG current change (%, negative = inhibition) at 10uM": 16.1}, {"smiles": "COc1ccc(NCC(=O)n2c(C)c(C)c3ccccc32)cc1OC", "hERG current change (%, negative = inhibition) at 10uM": 8.3}, {"smiles": "Cc1ccc(OCC(=O)NCCNC(=O)c2cccnc2)cc1C", "hERG current change (%, negative = inhibition) at 10uM": 17.7}, {"smiles": "O=C(Cn1c(=O)n(Cc2ccco2)c(=O)c2ccccc21)Nc1cccc(Cl)c1", "hERG current change (%, negative = inhibition) at 10uM": 5.12}]}]}
